# According to the BET-seq Pho4 binding data (Le et al. 2018):
# The list shows a part of the results. These are noisy estimates, calculated here from bound and input reads.
# Molecular target: T1, Pho4 (S. cerevisiae) (UniProt P07270)
# T1 sequence: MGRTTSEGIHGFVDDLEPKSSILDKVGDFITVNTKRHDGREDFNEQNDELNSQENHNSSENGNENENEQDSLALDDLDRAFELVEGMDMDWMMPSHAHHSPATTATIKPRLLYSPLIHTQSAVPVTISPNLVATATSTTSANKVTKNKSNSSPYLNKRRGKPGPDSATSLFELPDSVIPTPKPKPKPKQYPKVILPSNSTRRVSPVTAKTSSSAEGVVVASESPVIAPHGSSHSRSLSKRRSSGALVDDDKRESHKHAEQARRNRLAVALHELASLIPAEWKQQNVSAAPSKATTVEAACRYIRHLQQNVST
# Test: relative binding free energy (BET-seq); higher = weaker binding
# Details: reference: library average
row,Sequence,relative binding free energy [kcal/mol]
1,TATGTCACGTGGCGTA,0.1
2,CGTGGCACGTGGGGTT,-0.27
3,GGGTGCACGTGAATAG,0.38
4,TGGATCACGTGTGCTA,0.02
5,GATTACACGTGGTGTA,0.06
6,GTACGCACGTGGGCGG,-0.43
7,GAGTGCACGTGGGATA,0.1
8,GGGTTCACGTGCCGTG,0.32
9,CGGATCACGTGGCTGG,0.07
10,ATTGTCACGTGGATTG,0.14
11,TTGGTCACGTGTGCCT,0.09
12,TGGGACACGTGGTGAG,-0.11
13,TGCTGCACGTGATAGG,-0.06
14,GAGCTCACGTGCGTGG,0.18
15,TAGATCACGTGTTGTC,0.22
16,GTTCGCACGTGGTTAG,-0.16
17,TGAATCACGTGTAGTG,0.22
18,TTGTCCACGTGCTGTT,0
19,GCGAGCACGTGAGGGT,0.13
20,ATTCGCACGTGATGTT,0.04
21,CGAGTCACGTGAGGGA,0.14
22,AAGCTCACGTGGAGAG,0.38
23,TATAGCACGTGATCGG,0.02
24,GTGAGCACGTGATTAT,0.01
25,TCGGGCACGTGAGGGT,0.05
26,GATGACACGTGAGCTT,0.59

row,Sequence,relative binding free energy [kcal/mol]
1,ACGTTCACGTGGTGTG,0.05
2,GTCAGCACGTGGTGGG,-0.08
3,ATTATCACGTGTTGCG,0.09
4,TTTAACACGTGTTGGT,0.05
5,GTGTGCACGTGATGGG,0.24
6,CTTGGCACGTGGATAT,-0.11
7,GGTTACACGTGTTGCG,0.19
8,AGGGACACGTGTATTG,-0.11
9,GTTAGCACGTGGCAGT,0.07
10,TGTTTCACGTGTATAC,0.13
11,CAAGTCACGTGCGGGT,0.07
12,AGGTTCACGTGTCATT,0.23
13,CGATTCACGTGGTGGG,0.23
14,AAGTTCACGTGGTGCA,0.19
15,CAAGTCACGTGTGTTT,0.03
16,GTCAGCACGTGATGTT,0.17
17,TTCGGCACGTGGCGGG,-0.14
18,CACTTCACGTGGGGGA,0.3
19,TTTGGCACGTGAATTT,0.15
20,GGTGCCACGTGTCGGT,-0.02
21,AGTTACACGTGATAAG,0.18
22,GGTATCACGTGGTGTG,0.17
23,TATGTCACGTGTGGCG,0.05
24,ATAGGCACGTGGTGTG,-0.24
25,TGTGTCACGTGGGGGC,0
26,AGAGTCACGTGGATGT,0.17

row,Sequence,relative binding free energy [kcal/mol]
1,ATTGCCACGTGGTGGA,-0.12
2,TGGTTCACGTGTTTTT,0.32
3,GGTGGCACGTGACGTA,0.08
4,ACGGGCACGTGCTGGA,-0.16
5,GATTTCACGTGTCAGA,0.57
6,CCTTTCACGTGGTATT,0.18
7,GCAGACACGTGTTTGT,0.03
8,GTTAGCACGTGTGGAC,-0.03
9,GGGGTCACGTGAATAG,0.28
10,GTAGGCACGTGTTCAT,0.01
11,GGTTTCACGTGAGTTC,0.34
12,AGAGACACGTGGGATG,-0.2
13,AAAGTCACGTGACGGG,0.2
14,TGTTTCACGTGGACAT,0.27
15,ACAAGCACGTGAGTTG,0.18
16,CGCCGCACGTGGGTTG,-0.2
17,AAGTACACGTGGTGAG,0.05
18,TTTCGCACGTGATGAT,0.03
19,GGATGCACGTGGTAGC,0
20,TTCATCACGTGTGGCG,0.14
21,TGTTACACGTGATATG,0.16
22,ATGGTCACGTGCTATG,-0.04
23,TTTAACACGTGCTAGG,-0.15
24,GTTTACACGTGGAGGA,0.21
25,GGATTCACGTGGGCAT,0.18
26,CCGGACACGTGTTGGG,-0.01

row,Sequence,relative binding free energy [kcal/mol]
1,TGATGCACGTGGTATT,-0.15
2,TGTCGCACGTGAAGGA,0.16
3,ATGGTCACGTGAAAAG,0.4
4,AGCTTCACGTGTTGTG,0.05
5,TGAGGCACGTGAAGAG,0.21
6,GGAATCACGTGGTGCG,0.03
7,TGTTGCACGTGTGCCG,-0.12
8,AGTAACACGTGGTCGG,-0.12
9,AAGGTCACGTGCGGAG,0.07
10,GTGGGCACGTGTGGGT,0.06
11,TGTAGCACGTGTGTCT,-0.13
12,CGTTTCACGTGACGGT,0.27
13,GCTTTCACGTGTAGTA,0.25
14,TCTGTCACGTGAGATT,0.34
15,TGTAACACGTGCGCGT,-0.08
16,TGGATCACGTGTATCT,0.22
17,CTTCGCACGTGGGTGT,-0.32
18,TGGATCACGTGGGGTG,0.05
19,GCATTCACGTGGTGTT,0.29
20,CTGAGCACGTGGGTTG,-0.13
21,ATGGGCACGTGGTTGA,-0.13
22,GTGGACACGTGTGAGA,0.19
23,TTCCGCACGTGGTGTT,-0.2
24,TTGATCACGTGATAGT,0.18
25,TAACGCACGTGGGTTT,-0.37
26,GTCCTCACGTGAGGGG,0.28

row,Sequence,relative binding free energy [kcal/mol]
1,TTTTACACGTGTTATA,0.01
2,GTTCCCACGTGTTGGT,0.02
3,ATGCGCACGTGTGGCT,-0.04
4,GTGGACACGTGAGGCC,0.41
5,TTTATCACGTGGACTG,0.22
6,GAATGCACGTGTCTTG,0.02
7,ACGGGCACGTGCTTGT,-0.07
8,TGGAGCACGTGAGCTG,0.07
9,TCGTGCACGTGCGGAG,-0.1
10,GTATTCACGTGAGGAA,0.39
11,GTTTACACGTGGATGG,0.23
12,TGTGACACGTGACGTA,0.1
13,TATTGCACGTGGTGTA,-0.05
14,GGGCCCACGTGTGTTG,-0.04
15,TAATGCACGTGAGGAA,0.28
16,AGTACCACGTGGTGTT,-0.27
17,TACAACACGTGGTGTG,-0.16
18,ATGTGCACGTGTCTCG,-0.04
19,CTTGTCACGTGGTATG,0
20,GTATGCACGTGTTGAG,0.03
21,TAGGTCACGTGAAGGT,0.23
22,AGGTTCACGTGATTGC,0.35
23,GCTAACACGTGGGGGA,-0.11
24,TTATGCACGTGCAGTT,-0.03
25,AGAATCACGTGATTTA,0.26
26,GTTTGCACGTGCGTGC,-0.03

row,Sequence,relative binding free energy [kcal/mol]
1,GGGTGCACGTGGGAGT,-0.01
2,TTGATCACGTGGGCGT,0.09
3,GTGAGCACGTGGTGTG,-0.07
4,TGAGACACGTGATGGA,0
5,TTCTGCACGTGGTTTC,0.04
6,GTCAGCACGTGGGATT,-0.16
7,CAGGGCACGTGAGTGT,0.14
8,TTCGGCACGTGAGTGT,0.15
9,GGGGGCACGTGTACTG,-0.01
10,TCTGGCACGTGTCGGT,0.06
11,GGTATCACGTGGTTTA,0.21
12,TAATGCACGTGTGGTT,0.08
13,TCGTGCACGTGTATGT,-0.1
14,TACGACACGTGGCGGG,0.01
15,GATTACACGTGGGGGT,0.12
16,AGGGGCACGTGATCGA,-0.04
17,TCAGGCACGTGACGGG,-0.05
18,GTGTTCACGTGGCGGG,0.23
19,TTCGACACGTGGGGGA,-0.19
20,GAGGTCACGTGCGGGA,0.25
21,GGGTACACGTGAAATT,0.39
22,CTTTACACGTGGGATG,0.01
23,TGGGTCACGTGGCCGA,-0.03
24,GAGGTCACGTGTTAAG,0.18
25,GTGGTCACGTGCTTCG,0.11
26,AGGTGCACGTGGCGGT,-0.19

row,Sequence,relative binding free energy [kcal/mol]
1,AAGCTCACGTGTGGGT,0.23
2,TTACGCACGTGTAAGG,0.05
3,GTTTGCACGTGAATAT,0.2
4,GTGAACACGTGACGTT,0.29
5,TGCTCCACGTGAGGTT,0.21
6,GCAGGCACGTGTGGAG,-0.13
7,GAGGTCACGTGGAGGG,0.19
8,CTTGCCACGTGGGTGG,-0.24
9,CGCTGCACGTGGGAGT,-0.12
10,TGGGTCACGTGCGTTC,0.06
11,CATTGCACGTGCGTTG,-0.01
12,ACGTGCACGTGTTTGT,-0.12
13,GTGGACACGTGATAGT,0.2
14,TGATACACGTGTTGGG,0.01
15,TTGGACACGTGTTCAG,0.08
16,CGGAGCACGTGTTGGT,-0.09
17,CTGAACACGTGTTTTT,0.1
18,AGTAGCACGTGCGGAT,-0.19
19,TAGCTCACGTGGGATT,0.19
20,AGCTTCACGTGTTCTG,0.29
21,GTGGGCACGTGTTTTC,-0.05
22,ATGTACACGTGGTTCG,0
23,GGCTTCACGTGGTATT,0.28
24,TTCATCACGTGGTCGT,0.06
25,TGTGTCACGTGTCACT,0.13
26,ATAGACACGTGTGGGC,0.24

row,Sequence,relative binding free energy [kcal/mol]
1,AGGTGCACGTGGTCAA,-0.15
2,GTTAGCACGTGCTGGT,-0.01
3,GGGCGCACGTGGTTGG,-0.08
4,AGAGGCACGTGTCGGT,-0.07
5,GATTACACGTGTGATT,0.17
6,GTGAGCACGTGTTACT,-0.04
7,CTGTCCACGTGGTTGT,-0.07
8,GCGGGCACGTGTCGGC,0.19
9,ACCTGCACGTGGTGTG,-0.17
10,GGGTACACGTGTTGGA,0.27
11,GTTCGCACGTGTGGCA,0.17
12,GGGCCCACGTGTTGGG,-0.02
13,AGGAGCACGTGTCTGT,-0.08
14,TTGTGCACGTGGTGGC,0
15,GTATACACGTGTAGAT,0.25
16,AATGGCACGTGTTGTT,-0.03
17,AAAGACACGTGGTGGG,-0.07
18,TATGTCACGTGCTGGA,-0.01
19,TGGGGCACGTGGCCGC,-0.17
20,ATGTTCACGTGTAGGA,0.25
21,GCTTGCACGTGTGTTG,-0.04
22,TGCGGCACGTGGTTCT,-0.22
23,GAACTCACGTGGATGT,0.41
24,GCTGTCACGTGAGTGG,0.25
25,GATAGCACGTGGTGCG,-0.14
26,GAGTGCACGTGAGAGG,0.12

row,Sequence,relative binding free energy [kcal/mol]
1,ATGGGCACGTGTCAGG,-0.17
2,TTATCCACGTGGGGGG,-0.19
3,TAGTTCACGTGTGTGA,0.16
4,TATCGCACGTGGTGTG,-0.17
5,GTTTTCACGTGCAGGC,0.32
6,CTTGCCACGTGTGTGG,-0.13
7,GTCGACACGTGGGGTT,-0.09
8,TTATCCACGTGTGTAT,0.02
9,TTCTACACGTGGATGG,0.02
10,GATTACACGTGTGTAT,0.12
11,GATTTCACGTGAATGG,0.46
12,TTCATCACGTGTTGTC,0.08
13,AATTTCACGTGAGGCT,0.15
14,TATGGCACGTGATCTT,-0.08
15,GGTGGCACGTGTCTTC,0.19
16,CAGGACACGTGGATGG,0.06
17,TATTACACGTGGCTTT,-0.05
18,AGTCACACGTGGCGGG,-0.03
19,TCATTCACGTGGTGTT,0.12
20,GCGGACACGTGGGAGG,-0.09
21,AAGGTCACGTGATGGG,0.19
22,TTAATCACGTGATTGT,0.23
